{
  "source": "the supplement of paper PMC8728848",
  "binders": {"B1": {"name": "TLEC1 (Arabidopsis thaliana), Q9C5Q9 (protein)", "chain": "MSGASSVSSICSSNVSLIPTGPQVFINFRGKDLRKGFMSFLKPALKKEKINVFIDEQEERGKYLISLFDTIGESKIALVIFSEGYCESHWCMDELVKIKEYMDQNRLIIIPIFYRLDLDVVKDLTGKFGDNFWDLVDKYQPEPKKLHKWTEALFSVCELFSLILPKHSDISDRDFVKSIVKAVKKVQKNFFQRRNGEIEYQDFSVPACKLTITMHESPNEEAVQVTVLNEFYQMKNQSPVPSYEFKFWVDLTRPKGNVFMIDARDLSIAWSEDSNHWTWLPLPNQNSNESVMEIAFLKSASWLDVAGKFDTRYLTPRTRYEVVFVVKLEYTFEWETLVKLKLDLPNTWEKPQEQSVDMFDYISDQWLDIPVGEFTTSKKNVGEISFAMYEHECQLWKSGLFVKGVTIRPKY"}},
  "test_in_all_cases": "glycan array binding signal (z-score within array); higher = stronger binding",
  "conditions_in_all_cases": "glycan notation: IUPAC condensed, linker removed",
  "key": {"Fuc(b1-3)GlcNAc": {"biological_target": "Fuc(b1-3)GlcNAc", "summary_of_the_method": "(§1)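 Glycan array data came from 3228 arrays in the Consortium for Functional Glycomics database, and only arrays with an available protein sequence were kept. Glycan names were put into IUPAC-condensed notation, and columns mapping to the same glycan were averaged. The binding signal is a within-array Z-score, averaged across arrays of one protein sequence run at different concentrations or buffers and across linkers. A negative Z-score can be read as non-binding.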"}, "Gal(a1-2)Gal": {"biological_target": "Gal(a1-2)Gal", "summary_of_the_method": "as §1"}, "Gal(a1-3)Gal": {"biological_target": "Gal(a1-3)Gal", "summary_of_the_method": "as §1"}, "Gal(a1-3)Gal(b1-3)Glc": {"biological_target": "Gal(a1-3)Gal(b1-3)Glc", "summary_of_the_method": "as §1"}, "Gal(a1-3)Gal(b1-3)GlcNAc": {"biological_target": "Gal(a1-3)Gal(b1-3)GlcNAc", "summary_of_the_method": "as §1"}, "Gal(a1-3)Gal(b1-4)GlcNAc": {"biological_target": "Gal(a1-3)Gal(b1-4)GlcNAc", "summary_of_the_method": "as §1"}, "[1]": {"biological_target": "Gal(a1-3)Gal(b1-4)[Fuc(a1-3)]GalNAc", "summary_of_the_method": "as §1"}, "Gal(a1-3)GlcNAc": {"biological_target": "Gal(a1-3)GlcNAc", "summary_of_the_method": "as §1"}, "[2]": {"biological_target": "Gal(a1-3)[Gal(a1-4)]Gal(b1-4)GlcNAc", "summary_of_the_method": "as §1"}, "Gal(a1-4)Gal(b1-4)Gal": {"biological_target": "Gal(a1-4)Gal(b1-4)Gal", "summary_of_the_method": "as §1"}, "Gal(a1-4)Gal(b1-4)GalNAc": {"biological_target": "Gal(a1-4)Gal(b1-4)GalNAc", "summary_of_the_method": "as §1"}, "Gal(a1-4)GlcNAc": {"biological_target": "Gal(a1-4)GlcNAc", "summary_of_the_method": "as §1"}, "Gal(a1-6)Glc": {"biological_target": "Gal(a1-6)Glc", "summary_of_the_method": "as §1"}, "Gal(b1-2)Gal": {"biological_target": "Gal(b1-2)Gal", "summary_of_the_method": "as §1"}, "Gal(b1-3)Gal": {"biological_target": "Gal(b1-3)Gal", "summary_of_the_method": "as §1"}, "Gal(b1-3)GalNAc": {"biological_target": "Gal(b1-3)GalNAc", "summary_of_the_method": "as §1"}, "[3]": {"biological_target": "Gal(b1-3)GalNAc(b1-3)Gal(a1-4)Gal(b1-4)Glc", "summary_of_the_method": "as §1"}, "[4]": {"biological_target": "Gal(b1-3)GalNAc(b1-3)Gal(b1-4)Glc", "summary_of_the_method": "as §1"}, "[5]": {"biological_target": "Gal(b1-3)GalNAc(b1-3)Gal(b1-4)GlcNAc", "summary_of_the_method": "as §1"}, "[6]": {"biological_target": "Gal(b1-3)GalNAc(b1-4)Gal(b1-4)Glc", "summary_of_the_method": "as §1"}, "[7]": {"biological_target": "Gal(b1-3)GalNAc(b1-4)[Neu5Ac(a2-3)]Gal(b1-4)Glc", "summary_of_the_method": "as §1"}, "[8]": {"biological_target": "Gal(b1-3)GlcNAc(b1-3)Gal(b1-3)GlcNAc", "summary_of_the_method": "as §1"}, "[9]": {"biological_target": "Gal(b1-3)[Fuc(a1-4)]GlcNAc", "summary_of_the_method": "as §1"}, "[10]": {"biological_target": "Gal(b1-3)[Fuc(a1-4)]GlcNAc(b1-3)Gal(b1-3)[Fuc(a1-4)]GlcNAc", "summary_of_the_method": "as §1"}, "[11]": {"biological_target": "Gal(b1-3)[Fuc(a1-4)]GlcNAc(b1-3)Gal(b1-4)GlcNAc", "summary_of_the_method": "as §1"}, "[12]": {"biological_target": "Gal(b1-3)[Fuc(a1-4)]GlcNAc(b1-3)Gal(b1-4)[Fuc(a1-3)]GlcNAc", "summary_of_the_method": "as §1"}, "[13]": {"biological_target": "Gal(b1-3)[GlcNAc(b1-6)]GalNAc", "summary_of_the_method": "as §1"}, "[14]": {"biological_target": "Gal(b1-3)[GlcNAc(b1-6)]GlcNAc", "summary_of_the_method": "as §1"}, "[15]": {"biological_target": "Gal(b1-3)[Neu5Ac(a2-6)]GalNAc", "summary_of_the_method": "as §1"}, "[16]": {"biological_target": "Gal(b1-3)[Neu5Ac(a2-6)]GlcNAc", "summary_of_the_method": "as §1"}, "[17]": {"biological_target": "Gal(b1-3)[Neu5Ac(a2-6)]GlcNAc(a1-4)Gal(b1-4)Glc", "summary_of_the_method": "as §1"}, "[18]": {"biological_target": "Gal(b1-3)[Neu5Ac(b2-6)]GlcNAc", "summary_of_the_method": "as §1"}, "[19]": {"biological_target": "Gal(b1-4)GalNAc(a1-3)[Fuc(a1-2)]Gal(b1-4)GlcNAc", "summary_of_the_method": "as §1"}, "[20]": {"biological_target": "Gal(b1-4)GalNAc(b1-3)[Fuc(a1-2)]Gal(b1-4)GlcNAc", "summary_of_the_method": "as §1"}, "Gal(b1-4)Glc": {"biological_target": "Gal(b1-4)Glc", "summary_of_the_method": "as §1"}, "Gal(b1-4)Glc6S": {"biological_target": "Gal(b1-4)Glc6S", "summary_of_the_method": "as §1"}, "Gal(b1-4)GlcNAc": {"biological_target": "Gal(b1-4)GlcNAc", "summary_of_the_method": "as §1"}, "[21]": {"biological_target": "Gal(b1-4)GlcNAc(b1-2)Man(a1-3)[Gal(b1-4)GlcNAc(b1-2)Man(a1-6)]Man(b1-4)GlcNAc(b1-4)GlcNAc", "summary_of_the_method": "as §1"}, "[22]": {"biological_target": "Gal(b1-4)GlcNAc(b1-3)Gal(b1-3)GlcNAc", "summary_of_the_method": "as §1"}, "[23]": {"biological_target": "Gal(b1-4)GlcNAc(b1-3)Gal(b1-4)Glc", "summary_of_the_method": "as §1"}, "[24]": {"biological_target": "Gal(b1-4)GlcNAc(b1-3)Gal(b1-4)GlcNAc", "summary_of_the_method": "as §1"}, "[25]": {"biological_target": "Gal(b1-4)GlcNAc(b1-3)Gal(b1-4)GlcNAc(b1-3)Gal(b1-4)GlcNAc", "summary_of_the_method": "as §1"}, "[26]": {"biological_target": "Gal(b1-4)GlcNAc(b1-3)Gal(b1-4)[Fuc(a1-3)]GlcNAc(b1-3)Gal(b1-4)[Fuc(a1-3)]GlcNAc", "summary_of_the_method": "as §1"}, "[27]": {"biological_target": "Gal(b1-4)GlcNAc(b1-3)GalNAc", "summary_of_the_method": "as §1"}, "[28]": {"biological_target": "Gal(b1-4)GlcNAc(b1-3)[Gal(b1-4)GlcNAc(b1-6)]GalNAc", "summary_of_the_method": "as §1"}},
  "note": "The other results are listed elsewhere or left out.",
  "data": [
    {"binder": "B1", "values": [
      {"measurement": "glycan array binding signal (z-score)", "setting": "Fuc(b1-3)GlcNAc", "value": -0.029},
      {"measurement": "glycan array binding signal (z-score)", "setting": "Gal(a1-2)Gal", "value": -0.074},
      {"measurement": "glycan array binding signal (z-score)", "setting": "Gal(a1-3)Gal", "value": 0.303},
      {"measurement": "glycan array binding signal (z-score)", "setting": "Gal(a1-3)Gal(b1-3)Glc", "value": -0.309},
      {"measurement": "glycan array binding signal (z-score)", "setting": "Gal(a1-3)Gal(b1-3)GlcNAc", "value": -0.213},
      {"measurement": "glycan array binding signal (z-score)", "setting": "Gal(a1-3)Gal(b1-4)GlcNAc", "value": -0.334},
      {"measurement": "glycan array binding signal (z-score)", "setting": "[1]", "value": -0.25},
      {"measurement": "glycan array binding signal (z-score)", "setting": "Gal(a1-3)GlcNAc", "value": -0.234},
      {"measurement": "glycan array binding signal (z-score)", "setting": "[2]", "value": -0.228},
      {"measurement": "glycan array binding signal (z-score)", "setting": "Gal(a1-4)Gal(b1-4)Gal", "value": -0.13},
      {"measurement": "glycan array binding signal (z-score)", "setting": "Gal(a1-4)Gal(b1-4)GalNAc", "value": -0.13},
      {"measurement": "glycan array binding signal (z-score)", "setting": "Gal(a1-4)GlcNAc", "value": -0.035},
      {"measurement": "glycan array binding signal (z-score)", "setting": "Gal(a1-6)Glc", "value": 0.182},
      {"measurement": "glycan array binding signal (z-score)", "setting": "Gal(b1-2)Gal", "value": -0.119},
      {"measurement": "glycan array binding signal (z-score)", "setting": "Gal(b1-3)Gal", "value": 0.513},
      {"measurement": "glycan array binding signal (z-score)", "setting": "Gal(b1-3)GalNAc", "value": -0.297},
      {"measurement": "glycan array binding signal (z-score)", "setting": "[3]", "value": -0.327},
      {"measurement": "glycan array binding signal (z-score)", "setting": "[4]", "value": -0.22},
      {"measurement": "glycan array binding signal (z-score)", "setting": "[5]", "value": -0.008},
      {"measurement": "glycan array binding signal (z-score)", "setting": "[6]", "value": -0.24},
      {"measurement": "glycan array binding signal (z-score)", "setting": "[7]", "value": -0.315},
      {"measurement": "glycan array binding signal (z-score)", "setting": "[8]", "value": -0.495},
      {"measurement": "glycan array binding signal (z-score)", "setting": "[9]", "value": -0.291},
      {"measurement": "glycan array binding signal (z-score)", "setting": "[10]", "value": -0.396},
      {"measurement": "glycan array binding signal (z-score)", "setting": "[11]", "value": -0.113},
      {"measurement": "glycan array binding signal (z-score)", "setting": "[12]", "value": -0.322},
      {"measurement": "glycan array binding signal (z-score)", "setting": "[13]", "value": -0.317},
      {"measurement": "glycan array binding signal (z-score)", "setting": "[14]", "value": -0.36},
      {"measurement": "glycan array binding signal (z-score)", "setting": "[15]", "value": -0.439},
      {"measurement": "glycan array binding signal (z-score)", "setting": "[16]", "value": -0.325},
      {"measurement": "glycan array binding signal (z-score)", "setting": "[17]", "value": -0.426},
      {"measurement": "glycan array binding signal (z-score)", "setting": "[18]", "value": -0.106},
      {"measurement": "glycan array binding signal (z-score)", "setting": "[19]", "value": -0.265},
      {"measurement": "glycan array binding signal (z-score)", "setting": "[20]", "value": -0.264},
      {"measurement": "glycan array binding signal (z-score)", "setting": "Gal(b1-4)Glc", "value": 0.141},
      {"measurement": "glycan array binding signal (z-score)", "setting": "Gal(b1-4)Glc6S", "value": 0.206},
      {"measurement": "glycan array binding signal (z-score)", "setting": "Gal(b1-4)GlcNAc", "value": -0.385},
      {"measurement": "glycan array binding signal (z-score)", "setting": "[21]", "value": -0.403},
      {"measurement": "glycan array binding signal (z-score)", "setting": "[22]", "value": -0.374},
      {"measurement": "glycan array binding signal (z-score)", "setting": "[23]", "value": -0.038},
      {"measurement": "glycan array binding signal (z-score)", "setting": "[24]", "value": -0.527},
      {"measurement": "glycan array binding signal (z-score)", "setting": "[25]", "value": -0.396},
      {"measurement": "glycan array binding signal (z-score)", "setting": "[26]", "value": -0.111},
      {"measurement": "glycan array binding signal (z-score)", "setting": "[27]", "value": -0.419},
      {"measurement": "glycan array binding signal (z-score)", "setting": "[28]", "value": -0.464}
    ]}
  ]
}
